Measurements: PubChem BioAssay (NCATS)
“And” between values parts separate entries of the source, which are not always exact repeats. Equal values may be shown once. Inconclusive means that the source gave no clear call. Such entries were picked first, then a sample of the others. Where the call is inconclusive, the potency comes from a doubtful curve fit. A structure can be active in one record and inactive in another. The source made the active and inactive calls. Calls come from the whole dose curve; as a rule, active = well fitted curve in the direction sought with a large enough effect; inconclusive = small, poorly fitted or top-dose-only effect, or another doubt; inactive = no such curve, though single readings can be large; an effect the other way counts as inactive or inconclusive.

What was measured:
[1] = qHTS for Inhibitors of Plasmodium falciparum (DD2) proliferation (AID 504314); settings: P. falciparum Dd2 in erythrocytes, SYBR Green growth, 72 h; series mostly up to 6.11 µM
Summary of the method: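 Parasite proliferation measured as SYBR Green signal from Plasmodium DNA, mature erythrocytes lacking DNA. 72 h incubation, 37C; activity scaled between vehicle and 0.29 uM artemisinin, with correction from vehicle-only plates.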

[2] = qHTS for Inhibitors of Plasmodium falciparum (GB4) proliferation (AID 504315); note: nearly all actives have a fitted effect of over 50% in size; settings: P. falciparum GB4 in erythrocytes, SYBR Green DNA, 72 h; activity change, negative = inhibition: at 6.7 µM (top of the series)
Summary of the method: (§1)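 Parasite growth measured as SYBR Green DNA fluorescence (ex 485, em 535 nm) after overnight lysis following 72 h culture at 37 °C, 0.3% parasitemia, 2.5% hematocrit. Values normalized against DMSO and 0.29 uM artemisinin controls, with plate-stack correction.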

[3] = qHTS for Inhibitors of Plasmodium falciparum (7G8) proliferation (AID 504316); note: nearly all actives have a fitted effect of over 65% in size; settings: P. falciparum 7G8 in erythrocytes, SYBR Green DNA, 72 h; activity change, negative = inhibition: at 6.7 µM (top of the series)
Summary of the method: as §1

[4] = qHTS for Inhibitors of Plasmodium falciparum (HB3) proliferation (AID 504318); note: nearly all actives have a fitted effect of over 60% in size; settings: P. falciparum HB3 in erythrocytes, SYBR Green DNA, 72 h; activity change, negative = inhibition: at 7.21 µM (top of the series)
Summary of the method: as §1

[5] = qHTS for Inhibitors of Plasmodium falciparum (CP250) proliferation (AID 504320)
Summary of the method: as §1
Potency is the fitted concentration of half-maximal effect; tags give direction and shape of the fitted curve.

SMILES | Potency [1] | Potency [2] | Potency [3] | Potency [4] | Potency [5]
COc1cc2c(cc1OC)[C@@H]1O[C@](CCCCN3C(=O)c4ccccc4C3=O)(C2)OC2=C1C(=O)OC1(CCCCC1)C2 | active: 1690 nM | inconclusive: 1.9 µM [inhibitor, partial curve, poor fit] | inconclusive: 0.675 µM [inhibitor, partial curve, poor fit] | active: 1.9 µM | 
CCCCC[C@]12Cc3cc(OC)c(OC)cc3[C@H](O1)c1c(cc(C)n(-c3ccccc3)c1=O)O2 | inconclusive: 1690 nM [inhibitor, single point] | inconclusive: 1.69 µM [inhibitor, partial curve] | inconclusive: 1.9 µM [inhibitor, partial curve, poor fit] and inconclusive: 1.69 µM [inhibitor, partial curve, poor fit] | active: 2.94 µM | 
CCC(C)CN1C(=O)NC(CCc2ccccc2)C(C(C)=O)=C1C (configuration not stated) | inconclusive: 4240 nM [inhibitor, single point] | inconclusive: 4.26 µM [inhibitor, single point] | inconclusive: 1.9 µM [inhibitor, single point] | inconclusive: 2.13 µM [inhibitor, single point] | 
CCC(=O)N1C2=C(c3ccccc3[C@@H]1CC(=O)Nc1ccc3ccccc3c1)[C@H]1C(=O)N(c3ccccc3)C(=O)[C@@H]1[C@H](C)C2 | inconclusive: 1340 nM [inhibitor, partial curve] | inconclusive: 1.51 µM [inhibitor, single point] | active: 1.51 µM | inconclusive: 1.9 µM [inhibitor, partial curve] | 
COC(=O)c1c(C(=O)OC)c2c3cc(OC)c(OC)cc3cc([Si](C)(C)C)n2c1C(=O)OC | inconclusive: 3000 nM [inhibitor, single point] | inconclusive: 1.69 µM [inhibitor, partial curve] | active: 1.51 µM | active: 2.13 µM | 
Cc1cc2c(c(=O)n1Cc1ccccc1)[C@H]1O[C@](c3ccsc3)(Cc3ccccc31)O2 | inconclusive: 4240 nM [inhibitor, single point] | inconclusive: 2.13 µM [inhibitor, single point] | inconclusive: 1.51 µM [inhibitor, partial curve] | inconclusive: 1.9 µM [inhibitor, single point] | 
N#Cc1ccc2c(c1)C[C@]1(CCCCN3C(=O)c4ccccc4C3=O)Oc3c(c(=O)oc4ccc(F)cc34)[C@@H]2O1 | inconclusive: 1340 nM [inhibitor, partial curve] | inconclusive: 1.69 µM [inhibitor, single point] | active: 1.51 µM | inconclusive: 1.69 µM [inhibitor, partial curve] | 
CC1(OC(=O)C2CCCC2)C(=O)C=C2C=C(c3ccsc3)N(Cc3ccc4c(c3)OCO4)C=C2C1=O (configuration not stated) | inconclusive: 4240 nM [inhibitor, single point] | inconclusive: 2.13 µM [inhibitor, single point] | inconclusive: 1.9 µM [inhibitor, single point] | inconclusive: 1.65 µM [inhibitor, partial curve] and inconclusive: 1.9 µM [inhibitor, partial curve, poor fit] | 
COC(=O)C1=C(C(=O)OC)[C@@H]2N(Cc3ccccc3)c3ccccc3[C@@]23C[C@@H](C(=O)OC)N(S(=O)(=O)c2ccc4c(c2)OCCN4C)C3=N1 | inconclusive: 369 nM [inhibitor, single point] | active: 1.51 µM | active: 1.9 µM | active: 1.2 µM | active: 1510 nM
FC(F)(F)c1cc(NC(=S)Nc2ccc3ccccc3c2)cc(C(F)(F)F)c1 | inconclusive: 3780 nM [inhibitor, single point] | inconclusive: 0.0169 µM [activator, full curve, poor fit] | inconclusive: 1.9 µM [inhibitor, single point] | active: 2.13 µM | inconclusive: 3380 nM [inhibitor, single point]
COC(=O)C1=C(C(=O)OC)[C@@H]2N(Cc3ccccc3)c3ccccc3[C@@]23C[C@@H](C(=O)OC)N(S(=O)(=O)c2ccc(Br)cc2)C3=N1 | inconclusive: 522 nM [inhibitor, partial curve, poor fit] | active: 1.35 µM | active: 1.51 µM | active: 1.69 µM | active: 1690 nM
CCCNC(=O)OC[C@H]1O[C@H](CCON=C(C)CCN2CCCCc3nc(C)c(C)cc32)C=C[C@H]1Oc1ccc(OC)cc1 | inconclusive: 1690 nM [inhibitor, partial curve, poor fit] | inconclusive: 2.69 µM [inhibitor, partial curve, poor fit] | active: 1.9 µM | active: 2.82 µM | inconclusive: 3790 nM [inhibitor, partial curve, poor fit]
CCN1C(=NCc2cc(OC)c(OC)c(OC)c2)NC(c2cccc(C(F)(F)F)c2)C(C(=O)OC)=C1C (configuration not stated) | inconclusive: 1690 nM [inhibitor, partial curve] | inconclusive: 1.51 µM [inhibitor, partial curve] | active: 1.9 µM | inconclusive: 1.35 µM [inhibitor, partial curve] | inactive
COc1ccc2c3c(c(=O)oc2c1)[C@H]1O[C@](c2ccsc2)(Cc2ccccc21)O3 | inconclusive: 3780 nM [inhibitor, single point] | active: 1.69 µM | inconclusive: 2.13 µM [inhibitor, single point] | inconclusive: 4.26 µM [inhibitor, single point] | inconclusive: 2130 nM [inhibitor, single point]
CC1(OC(=O)C2CCCC2)C(=O)C=C2C=C(c3ccsc3)N(C3CCCC3)C=C2C1=O (configuration not stated) | inconclusive: 2120 nM [inhibitor, single point] | inconclusive: 1.35 µM [inhibitor, partial curve] | inactive and inconclusive: 3.79 µM [inhibitor, partial curve, poor fit] | inconclusive: 2.94 µM [inhibitor, single point] | inactive
CC(C)(C)c1nc(-c2ccccc2)oc1Nc1ccc2ccccc2c1 | active: 1690 nM | active: 1.9 µM | active: 1.51 µM | active: 2.94 µM | inconclusive: 4260 nM [inhibitor, single point]
COC(=O)C1=C(C)N(Cc2ccccc2)C(=NCCc2ccccn2)NC1c1cccc(C(F)(F)F)c1 (configuration not stated) | active: 948 nM | active: 0.601 µM | inconclusive: 1.51 µM [inhibitor, partial curve, poor fit] | inactive | active: 849 nM
O=C1C2=C(C(=O)c3ccccc31)[C@H]1O[C@](CCCCN3C(=O)c4ccccc4C3=O)(Cc3c1ccc1ccccc31)O2 | active: 1500 nM | active: 1.69 µM | active: 0.953 µM | active: 0.757 µM | inconclusive: 3790 nM [inhibitor, single point]
C=CC[C@@H]1C=C[C@@H](Oc2ccc(OC)cc2)[C@H](CO)O1 | inconclusive: 1890 nM [inhibitor, partial curve] | active: 1.51 µM | inconclusive: 1.9 µM [inhibitor, single point] | inconclusive: 1.85 µM [inhibitor, partial curve] | inconclusive: 1200 nM [inhibitor, partial curve]
COC(=O)C1=C(C)N(Cc2ccccc2)C(=NCc2cc(OC)c(OC)c(OC)c2)NC1CCc1ccccc1 (configuration not stated) | active: 1060 nM | active: 0.849 µM | active: 1.51 µM | active: 2.94 µM | active: 1070 nM
CC=CC1=CC2=CC(=O)C(C)(OC(=O)c3c(C)cc(O)cc3O)C(=O)C2=CO1 (configuration not stated) | inconclusive: 3780 nM [inhibitor, single point] | inconclusive: 42.6 nM [activator, full curve, poor fit] and inconclusive: 2.13 µM [inhibitor, single point] | inactive and inconclusive: 2.13 µM [inhibitor, single point] | inconclusive: 4.26 µM [inhibitor, single point] | inconclusive: 4260 nM [inhibitor, partial curve, poor fit]
COC(=O)C1=C(C(=O)OC)[C@@H]2N(Cc3ccccc3)c3ccccc3[C@@]23C[C@@H](C(=O)OC)N(S(=O)(=O)c2ccc(C)cc2)C3=N1 | inconclusive: 414 nM [inhibitor, partial curve, poor fit] | active: 1.69 µM | active: 1.69 µM | active: 1.51 µM | inconclusive: 1900 nM [inhibitor, single point]
COc1ccc([C@]23Cc4ccccc4[C@H](O2)C2=C(CC4(CCCCC4)OC2=O)O3)cc1 | inconclusive: 1890 nM [inhibitor, single point] | inconclusive: 1.9 µM [inhibitor, single point] | inconclusive: 1.69 µM [inhibitor, partial curve] | inconclusive: 4.26 µM [inhibitor, single point] | inconclusive: 2690 nM [inhibitor, partial curve, poor fit]
